# Laboratory results: the supplement of paper PMC7826260
# Some of the results follow. One pool of 16,384 single-stranded DNAs met each Rep nickase domain in vitro at 3 µM enzyme and 37 °C for 1 h; the strands have 90 letters, of which the middle is given. A value is the log2 ratio of uncut reads to the pool without enzyme; more negative means more cut, near 0 not cut, and no call is made. Because reads are shares of a total, they shift together, so uncut sequences can rise above 0 when many others are cut.
# Experiments:
# Test in all cases: uncleaved DNA left, log2 of reads against the no-enzyme library (log2 ratio); higher = less cleavage (more negative = more Rep cleavage of the k-mer); sequences stand for … in CTCGTCCG…ACCGGAGA
# [1] = tested on: T1, Rep nickase domain of Muscovy duck circovirus
# T1 sequence (residues 1-111, tag not shown): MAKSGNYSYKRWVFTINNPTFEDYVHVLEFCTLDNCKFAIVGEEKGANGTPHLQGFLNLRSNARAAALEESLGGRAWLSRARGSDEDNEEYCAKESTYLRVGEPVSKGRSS
# Method: (§1)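 A pool of 90-nt single-stranded DNAs with seven random bases just before the constant AC of the nick site (name = the seven bases) was cut by 3 µM recombinant His6-SUMO-tagged Rep nickase domain (300 nM DNA, 50 mM HEPES pH 8.0, 50 mM NaCl, 1 mM MnCl2, 1 h, 37 °C, three replicates). Uncut DNA was amplified and sequenced.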
# [2] = tested on: T2, Rep nickase domain of banana bunchy top virus
# T2 sequence (residues 1-94, tag not shown): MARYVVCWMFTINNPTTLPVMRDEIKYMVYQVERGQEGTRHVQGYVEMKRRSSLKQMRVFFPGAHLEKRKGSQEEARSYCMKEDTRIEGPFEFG
# Method: as §1
# [3] = tested on: T3, Rep nickase domain of cabbage leaf curl virus
# T3 sequence (residues 1-116, tag not shown): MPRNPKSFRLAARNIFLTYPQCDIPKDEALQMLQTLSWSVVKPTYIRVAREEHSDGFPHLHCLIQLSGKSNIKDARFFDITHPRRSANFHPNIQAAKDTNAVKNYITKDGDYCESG
# Method: as §1
# [4] = tested on: T4, Rep nickase domain of chickpea chlorotic dwarf virus
# T4 sequence (residues 1-124, tag not shown): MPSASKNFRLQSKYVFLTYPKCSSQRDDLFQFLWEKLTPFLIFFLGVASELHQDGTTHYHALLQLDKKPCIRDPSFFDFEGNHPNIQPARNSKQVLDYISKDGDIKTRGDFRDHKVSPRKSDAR
# Method: as §1
# [5] = tested on: T5, Rep nickase domain of faba bean necrotic yellows virus
# T5 sequence (residues 1-98, tag not shown): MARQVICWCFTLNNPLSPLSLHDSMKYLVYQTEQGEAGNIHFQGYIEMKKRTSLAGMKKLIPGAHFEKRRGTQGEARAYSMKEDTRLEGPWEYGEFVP
# Method: as §1
# [6] = tested on: T6, Rep nickase domain of maize striate mosaic virus
# T6 sequence (residues 1-117, tag not shown): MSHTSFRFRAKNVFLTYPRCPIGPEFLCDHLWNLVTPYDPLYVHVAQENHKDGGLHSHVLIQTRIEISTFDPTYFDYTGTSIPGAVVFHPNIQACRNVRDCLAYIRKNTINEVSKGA
# Method: as §1
# [7] = tested on: T7, Rep nickase domain of porcine circovirus 2
# T7 sequence (residues 2-116, tag not shown): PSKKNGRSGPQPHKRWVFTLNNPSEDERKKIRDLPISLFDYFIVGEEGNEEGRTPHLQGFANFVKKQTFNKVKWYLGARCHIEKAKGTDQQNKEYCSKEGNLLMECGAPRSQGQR
# Method: as §1
# [8] = tested on: T8, Rep nickase domain of tomato golden mosaic virus
# T8 sequence (residues 1-124, tag not shown): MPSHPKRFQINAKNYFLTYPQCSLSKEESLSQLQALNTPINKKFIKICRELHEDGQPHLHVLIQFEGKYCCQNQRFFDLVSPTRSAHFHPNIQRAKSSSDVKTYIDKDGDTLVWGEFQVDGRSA
# Method: as §1
# [9] = tested on: T9, Rep nickase domain of tomato yellow leaf curl virus
# T9 sequence (residues 1-136, tag not shown): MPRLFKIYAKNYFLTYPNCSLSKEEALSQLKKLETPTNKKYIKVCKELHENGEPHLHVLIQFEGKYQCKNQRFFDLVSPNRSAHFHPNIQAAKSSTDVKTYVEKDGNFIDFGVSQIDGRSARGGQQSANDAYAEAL
# Method: as §1
# [10] = tested on: T10, Rep nickase domain of wheat dwarf virus
# T10 sequence (residues 1-137, tag not shown): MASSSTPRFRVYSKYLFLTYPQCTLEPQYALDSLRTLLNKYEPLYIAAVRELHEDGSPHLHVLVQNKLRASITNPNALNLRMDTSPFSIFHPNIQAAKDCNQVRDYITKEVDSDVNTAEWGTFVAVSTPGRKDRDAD
# Method: as §1
Sequence,uncleaved DNA left (log2) [1],uncleaved DNA left (log2) [2],uncleaved DNA left (log2) [3],uncleaved DNA left (log2) [4],uncleaved DNA left (log2) [5],uncleaved DNA left (log2) [6],uncleaved DNA left (log2) [7],uncleaved DNA left (log2) [8],uncleaved DNA left (log2) [9],uncleaved DNA left (log2) [10]
CGGATCA,-0.0194,0.148,0.397,0.624,0.01,1.12,0.0462,-0.0242,0.132,0.165
TCTCAAT,0.0816,-0.146,0.146,-0.373,0.141,-0.124,-0.206,0.0207,0.0961,0.0418
TATGAGT,0.0669,-0.0675,-0.717,-1.57,-0.0418,-1.05,-0.198,-0.0944,-0.0144,-0.0639
GGCGATT,0.068,-0.102,0.202,0.873,-0.0481,1.7,0.0759,0.0431,0.0138,0.00386
GGTCCGA,0.0555,0.0536,0.719,1.62,0.0231,1.91,0.231,-0.0614,0.117,0.149
GACACAG,0.028,0.0674,-0.265,-0.11,0.0359,-0.676,0.184,0.0965,0.0468,0.13
TTAGAAT,0.0576,0.153,0.368,-0.124,0.0509,0.525,0.0372,0.1,0.0501,0.0479
AACACAT,0.0383,0.0716,0.00514,-1.82,-0.0393,-0.155,-0.199,0.0355,-0.0249,0.145
TTCTGGG,-0.0465,-0.097,-0.275,-0.369,-0.0186,-0.625,0.0372,-0.106,0.00158,-0.016
TCCTGAC,-0.00495,0.0371,0.0878,-0.242,0.0145,-0.0251,0.0272,-0.0683,-0.0656,0.00524
GTGTTGT,0.0674,0.092,0.431,0.75,-0.0423,1.29,-0.347,0.0216,0.203,0.0774
GGCTGTG,0.0748,0.0396,-0.0135,-0.0116,-0.00276,-0.272,0.0533,0.0784,0.0468,-0.0646
ACATATT,-3.58,-1.35,-1.88,-3.27,-0.171,-1.11,-3.48,-0.48,-0.0429,-0.738
CAGTAAG,-0.048,-0.0563,-0.842,-0.15,0.0874,-1.05,0.0753,0.0342,0.0741,-0.105
TTGCACT,-0.13,-0.141,-0.503,-1.66,-0.0776,-1.07,-0.171,-0.233,-0.0481,-0.0968
GAAGCAA,0.025,0.00655,0.221,0.669,0.0764,0.596,0.0579,0.0922,0.0447,0.00146
GCTAGCA,0.064,0.0535,-0.159,-0.13,-0.00489,-0.678,0.0297,-0.00971,0.105,0.0913
GGCTGAC,-0.0933,0.0292,0.545,1.55,-0.0385,1.53,0.176,0.0439,-0.0581,0.098
AGGCATC,0.154,0.13,0.588,1.29,-0.0398,1.3,0.167,0.0199,0.0674,0.248
ACCCGAC,0.0726,-0.029,0.0626,0.204,0.117,-0.499,0.0363,-0.0132,-0.0685,-0.00358
GCAAATC,-0.0435,-0.0207,-0.0167,0.232,-0.153,-0.281,-0.00897,-0.0739,-0.083,-0.0783
CCGCGTA,-0.176,-0.069,-0.482,-0.495,-0.022,-0.672,-0.0366,-0.12,-0.074,-0.168
ATAGTGG,0.0344,0.00958,-0.238,-0.143,0.0401,-0.976,0.158,0.0396,0.0711,-0.00167
GTGCCTA,0.0419,0.161,0.367,0.905,0.0532,1.72,0.00255,0.0796,0.091,0.205
GCACCCG,0.0147,0.0946,-0.679,-0.591,0.0427,-0.879,-0.113,-0.0447,-0.0478,-0.0454
ATTAAGG,0.162,0.112,0.348,1.32,0.0523,1.15,0.162,0.108,0.0244,0.0423
CACAACC,-0.0932,0.00145,-0.177,-2.05,-0.0133,-0.711,-0.601,-0.0185,-0.0197,0.0572
CTATTAA,0.101,0.109,-0.055,-0.46,0.0364,-0.638,-0.0124,0.237,0.0173,0.121
TGTTTCT,-1.78,-0.0841,0.235,-0.77,0.00103,0.756,-1.19,-0.0757,0.0454,-0.0285
CGGAATA,0.0155,-0.0349,-0.0167,-0.245,0.02,0.313,-0.0952,-0.0869,0.0191,0.148
